In patent US20250326840A1 (QURE BIOTECHNOLOGY SHANGHAI, published 2025):
Positions count from the first letter of the chain named.

What was measured:
[1] = target: T1, QP100 (cyno SIRPα (G7PGS8) ECD(E29-R368)-flag-his) (cynomolgus); assay: SPR, Biacore
T1 construct: the construct carries flag and his tags; also called cynoSIRPα-flag-his; Cynomolgus SIRPα (QP100)
T1 chain: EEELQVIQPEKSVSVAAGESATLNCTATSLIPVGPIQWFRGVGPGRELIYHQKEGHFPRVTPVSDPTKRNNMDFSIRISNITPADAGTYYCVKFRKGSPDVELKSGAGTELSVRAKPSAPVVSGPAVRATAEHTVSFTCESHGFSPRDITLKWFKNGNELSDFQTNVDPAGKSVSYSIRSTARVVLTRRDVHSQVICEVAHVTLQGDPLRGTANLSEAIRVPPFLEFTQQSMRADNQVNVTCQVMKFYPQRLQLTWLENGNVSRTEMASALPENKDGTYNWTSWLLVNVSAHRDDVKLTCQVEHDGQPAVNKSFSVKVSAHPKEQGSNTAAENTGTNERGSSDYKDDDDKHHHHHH

QP096 (human SIRPα V2 …) [2] = target: T2, QP096 (human SIRPα V2 ECD(E31-R370)-flag-his) (human); assay: SPR, Biacore T200
T2 construct: the construct carries flag and his tags; also called SIRPαV2-Flag-his; Human SIRPα V2 (QP096)

QP094 (human SIRPα V1 …) [3] = target: T3, QP094 (human SIRPα V1 ECD(E31-R370)-flag-his) (human, UniProt P78324 31-370); assay: SPR, Biacore T200
T3 construct: the construct carries flag and his tags; also called SIRPαV1-flag-his; SIRPαV1-his (QP094)

QP096 (human SIRPα V2 …) [4] = target: T2, QP096 (human SIRPα V2 …); assay: SPR, Biacore
QP094 (human SIRPα V1 …) [5] = target: T3, QP094 (human SIRPα V1 …); assay: SPR, Biacore
[6] = target: T4, QP271 (rhesus SIRPα1-flag-his T-557-28) (rhesus monkey); assay: binding ELISA, antigen coated
T4 construct: also called rhesus monkey SIRPα (QP271); monkeySIRPα1-flag-his
T4 chain: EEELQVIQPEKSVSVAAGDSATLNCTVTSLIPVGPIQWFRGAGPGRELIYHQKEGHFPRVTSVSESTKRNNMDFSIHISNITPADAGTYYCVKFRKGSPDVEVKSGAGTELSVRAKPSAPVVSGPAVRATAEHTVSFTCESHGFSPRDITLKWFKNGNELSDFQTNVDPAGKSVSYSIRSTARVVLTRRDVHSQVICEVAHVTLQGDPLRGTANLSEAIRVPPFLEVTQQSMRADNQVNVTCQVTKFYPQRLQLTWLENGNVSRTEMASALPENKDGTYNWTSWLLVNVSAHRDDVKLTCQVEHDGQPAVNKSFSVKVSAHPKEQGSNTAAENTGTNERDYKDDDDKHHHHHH

[7] = target: T5, QP098 (cyno SIRPα (I7G9Z7) ECD(E31-R369)-flag-his) (cynomolgus); assay: binding ELISA, antigen coated
T5 construct: the construct carries flag and his tags; also called cynoSIRPα (ECD); cynomolgus SIRPα
T5 chain: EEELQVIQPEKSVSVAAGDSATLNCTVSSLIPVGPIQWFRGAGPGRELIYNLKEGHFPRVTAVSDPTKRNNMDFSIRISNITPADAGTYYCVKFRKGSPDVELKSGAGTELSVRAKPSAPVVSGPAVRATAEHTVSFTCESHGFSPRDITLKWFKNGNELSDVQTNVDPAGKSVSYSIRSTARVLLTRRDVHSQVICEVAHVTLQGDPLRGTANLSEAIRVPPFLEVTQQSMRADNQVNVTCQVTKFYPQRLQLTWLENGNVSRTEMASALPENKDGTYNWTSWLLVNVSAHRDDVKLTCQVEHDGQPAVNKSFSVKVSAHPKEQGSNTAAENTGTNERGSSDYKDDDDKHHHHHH

[8] = target: T1, QP100 (cyno SIRPα (G7PGS8) …); assay: binding ELISA, antigen coated
[9] = target: T6, QP273 (cynoSIRPα2-flag-his T-557-14) (cynomolgus); assay: binding ELISA, antigen coated
T6 construct: also called cynomolgus SIRPα (QP273)
T6 chain: T4 chain with D19E, V27A, A42V, H51S, S62P, E65D, S66P, H77R, V103L

QP096 (human SIRPα V2 …) [10] = target: T2, QP096 (human SIRPα V2 …); assay: binding ELISA, antigen coated
QP094 (human SIRPα V1 …) [11] = target: T3, QP094 (human SIRPα V1 …); assay: binding ELISA, antigen coated

B1: QP163164 (antibody, human IgG1, kappa)
heavy: QVQLQQPGTELVRPGASVKLSCKASGYTFTNYWINWVKQRPGQGLEWIAMIDPSDSETHYNQIFKDKATLTVDKSSNTAYMQLSSLTSGDSAVYYCAMDYGSLYAMDYWGRGTSVTVSS[no letters for human IgG1 constant region]
light: DIVLTQSPASLAVSLGQRATISCRASKSVSSSGYNYIFWYQQKPGQPPKLLIYLASNLDSGVPARFSGSGSGTDFTLNIHPVEEEDAATYYCQHSRELPTFGGGTKLEIKRTVAAPSVFIFPPSDEQLKSGTASVVCLLNNFYPREAKVQWKVDNALQSGNSQESVTEQDSKDSTYSLSSTLTLSKADYEKHKVYACEVTHQGLSSPVTKSFNRGEC
notes: Murine 71C10 variable regions on human IgG1 / kappa constant regions; also called anti-SIRPα chimeric antibody QP163164; 71C10 chimeric, human IgG1
In the case of B1, the Kd [1] is reported as 132 nM, the koff [1] is reported as 0.263 s⁻¹ and the kon [1] is reported as 1.99e+06 M⁻¹ s⁻¹. It also gave a Kd (QP096 (human SIRPα V2 …) [2]) of 0.678 nM, a koff (QP096 (human SIRPα V2 …) [2]) of 0.0023 s⁻¹ and a kon (QP096 (human SIRPα V2 …) [2]) of 3.39e+06 M⁻¹ s⁻¹. The Kd (QP094 (human SIRPα V1 …) [3]) was 0.527 nM, the koff (QP094 (human SIRPα V1 …) [3]) was 0.00143 s⁻¹ and the kon (QP094 (human SIRPα V1 …) [3]) was 2.71e+06 M⁻¹ s⁻¹.

B2: QP163245 (antibody, human IgG4 S228P, kappa)
heavy: QVQLQQPGTELVRPGASVKLSCKASGYTFTNYWINWVKQRPGQGLEWIAMIDPSDSETHYNQIFKDKATLTVDKSSNTAYMQLSSLTSGDSAVYYCAMDYGSLYAMDYWGRGTSVTVSSASTKGPSVFPLAPCSRSTSESTAALGCLVKDYFPEPVTVSWNSGALTSGVHTFPAVLQSSGLYSLSSVVTVPSSSLGTKTYTCNVDHKPSNTKVDKRV[no letters for human IgG4 Fc with S228P (EU numbers)]
light: B1 light
notes: also called chimeric antibody QP163245; 71C10 chimeric, human IgG4
B2 was tested, and the Kd (QP096 (human SIRPα V2 …) [4]) was 0.558 nM, the Kd (QP094 (human SIRPα V1 …) [5]) was 0.386 nM and the EC50 [6] was 0.882 ng/mL. For the same binder, the EC50 [7] was 1.53 ng/mL, the EC50 [8] was 1.17 ng/mL and the EC50 [9] was 1.6 ng/mL. For the same binder, the EC50 (QP096 (human SIRPα V2 …) [10]) was 1.23 ng/mL and the EC50 (QP094 (human SIRPα V1 …) [11]) was 1.11 ng/mL.
